{
  "source": "paper PMC4336329",
  "about": "(PLoS ONE, 2015)",
  "note": "Among all 310,000 compounds or so, about 14,000 (4.5%) showed an effect of 50% or more. The effect is printed as a negative number. Some of the results follow.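 Further: peak tail current of the secondary pulse compared with the same well before compound.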",
  "data": [
    {"molecular_target": "human ether-à-go-go-related gene (hERG) potassium channel (human, UniProt Q12809)", "sequence (Q12809 whole entry, looked up)": "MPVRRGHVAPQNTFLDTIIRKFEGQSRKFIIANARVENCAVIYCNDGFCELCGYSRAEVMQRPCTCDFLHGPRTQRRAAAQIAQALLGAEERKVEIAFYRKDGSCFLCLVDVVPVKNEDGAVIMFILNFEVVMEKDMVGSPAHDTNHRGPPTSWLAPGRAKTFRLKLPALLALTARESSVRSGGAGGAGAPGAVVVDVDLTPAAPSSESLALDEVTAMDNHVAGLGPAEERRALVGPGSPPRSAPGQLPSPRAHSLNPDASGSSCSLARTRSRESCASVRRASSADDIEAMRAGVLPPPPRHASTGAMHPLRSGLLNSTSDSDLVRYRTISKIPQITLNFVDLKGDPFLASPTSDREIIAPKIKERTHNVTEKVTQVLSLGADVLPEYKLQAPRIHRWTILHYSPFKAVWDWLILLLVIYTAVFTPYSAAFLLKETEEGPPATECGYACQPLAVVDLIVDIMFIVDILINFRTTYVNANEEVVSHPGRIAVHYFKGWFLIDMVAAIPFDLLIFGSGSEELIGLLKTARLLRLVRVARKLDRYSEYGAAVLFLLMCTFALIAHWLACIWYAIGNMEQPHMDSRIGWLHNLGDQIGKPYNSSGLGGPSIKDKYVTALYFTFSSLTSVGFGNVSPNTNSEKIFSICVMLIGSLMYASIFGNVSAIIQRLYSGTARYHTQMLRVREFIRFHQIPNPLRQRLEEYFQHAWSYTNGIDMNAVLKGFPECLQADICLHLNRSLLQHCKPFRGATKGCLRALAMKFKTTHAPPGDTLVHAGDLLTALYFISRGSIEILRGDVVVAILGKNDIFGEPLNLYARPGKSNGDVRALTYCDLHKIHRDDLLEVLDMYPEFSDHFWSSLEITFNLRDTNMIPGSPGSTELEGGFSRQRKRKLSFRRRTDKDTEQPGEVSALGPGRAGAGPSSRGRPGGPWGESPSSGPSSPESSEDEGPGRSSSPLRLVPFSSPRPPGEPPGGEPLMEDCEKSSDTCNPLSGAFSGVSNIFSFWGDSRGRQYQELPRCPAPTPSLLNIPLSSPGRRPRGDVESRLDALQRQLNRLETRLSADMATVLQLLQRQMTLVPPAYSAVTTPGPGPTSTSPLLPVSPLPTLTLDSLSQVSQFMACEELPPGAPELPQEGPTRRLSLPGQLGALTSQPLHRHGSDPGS", "assay": "primary screen, population patch clamp on CHO cells stably expressing hERG", "units": {"hERG current change (%, negative = inhibition) at 10uM": "%"}, "values": [
      {"smiles": "Cc1oc2ccc(OCC(N)=O)cc2c1C(=O)OC(C)C", "hERG current change (%, negative = inhibition) at 10uM": -10.3},
      {"smiles": "COC(=O)C1CCN(C(=O)COC(=O)COc2ccc(C#N)cc2)CC1", "hERG current change (%, negative = inhibition) at 10uM": -12.3},
      {"smiles": "N=c1oc2ccc(Cl)cc2cc1C(=O)Nc1ccc(F)cc1", "hERG current change (%, negative = inhibition) at 10uM": 29.6},
      {"smiles": "COc1cc(/C=C/C(=O)Nc2ccc(C(C)=O)cc2)cc(OC)c1OC", "hERG current change (%, negative = inhibition) at 10uM": 10.1},
      {"smiles": "C=CCn1c(O)c(C(C)=NCCN2CCOCC2)c(=O)[nH]c1=O", "hERG current change (%, negative = inhibition) at 10uM": -10.5},
      {"smiles": "CCN(CC)C(=O)c1oc2ccc(S(=O)(=O)N3CCCCCC3)cc2c1C", "hERG current change (%, negative = inhibition) at 10uM": -5.58},
      {"smiles": "Cc1cc(Nc2ccc(Br)cc2)n2nc(C)nc2n1", "hERG current change (%, negative = inhibition) at 10uM": -42.5},
      {"smiles": "Cc1nc(C)c(C(=O)N2CCCC(C(=O)c3ccc4ccccc4c3)C2)s1", "note": "(stereo not shown)", "hERG current change (%, negative = inhibition) at 10uM": -23},
      {"smiles": "CC1CCC(NC(=O)CCS(=O)(=O)c2ccc3c(c2)oc(=O)n3C)CC1", "note": "(stereo not shown)", "hERG current change (%, negative = inhibition) at 10uM": 5.15},
      {"smiles": "O=C(Cn1nnc(-c2ccccc2F)n1)Nc1ccc(S(=O)(=O)NC2CCCC2)cc1", "hERG current change (%, negative = inhibition) at 10uM": 0.594},
      {"smiles": "CCOc1ccc(NC(=O)c2sc3nc4n(c(=O)c3c2C)CCC4)cc1", "hERG current change (%, negative = inhibition) at 10uM": 20},
      {"smiles": "O=C(O)c1ccc(N/N=C/c2ccncc2)cc1", "hERG current change (%, negative = inhibition) at 10uM": 12.4},
      {"smiles": "Cc1nc2ccccn2c1/C(O)=C1\\C(=O)C(=O)N(CCN2CCOCC2)C1c1ccncc1", "note": "(stereo not shown)", "hERG current change (%, negative = inhibition) at 10uM": 15.9},
      {"smiles": "CCOC(=O)C1(Cc2ccc(OC)cc2)CCN(C(=O)c2cc(C)nn2C)CC1", "hERG current change (%, negative = inhibition) at 10uM": -40.5},
      {"smiles": "COCCCn1c(O)c(/C=C2\\N=C(C#N)C(=Nc3ccc(C)cc3)O2)sc1=S", "hERG current change (%, negative = inhibition) at 10uM": 15.8},
      {"smiles": "CN1CCC2(CC1)N=C(c1ccc(F)cc1)C(=S)N2", "hERG current change (%, negative = inhibition) at 10uM": -13.7},
      {"smiles": "COc1ccccc1NC(=O)CSc1nnc(CNC(=O)c2ccco2)n1C", "hERG current change (%, negative = inhibition) at 10uM": 19.2},
      {"smiles": "COc1ccc(OC)c(S(=O)(=O)N2CCCCCC2)c1", "hERG current change (%, negative = inhibition) at 10uM": 1.03},
      {"smiles": "O=C(NCCc1ccncc1)Nc1cccc(Cl)c1", "hERG current change (%, negative = inhibition) at 10uM": -3.75},
      {"smiles": "CCCCCOC(=O)Cc1c(C)nc(-c2ccccc2)[nH]c1=O", "hERG current change (%, negative = inhibition) at 10uM": -1.68},
      {"smiles": "CNC(=O)CN1C(=O)COc2ccc(S(=O)(=O)N3CCCCCC3)cc21", "hERG current change (%, negative = inhibition) at 10uM": 17.2},
      {"smiles": "O=C1C2C3C=CC(C3)C2C(=O)N1c1n[nH]c(CCc2ccccc2)n1", "note": "(stereo not shown)", "hERG current change (%, negative = inhibition) at 10uM": 3.66},
      {"smiles": "CN(C(=O)COC(=O)C1CCN(S(=O)(=O)c2c(Cl)cccc2Cl)CC1)c1ccccc1", "hERG current change (%, negative = inhibition) at 10uM": -34.1},
      {"smiles": "CCOc1ccc(NC(N)=O)cc1", "hERG current change (%, negative = inhibition) at 10uM": 7.46},
      {"smiles": "Cn1c(=O)c2c(nc(Oc3ccccc3)n2C)n(C)c1=O", "hERG current change (%, negative = inhibition) at 10uM": -0.252},
      {"smiles": "O=C(NCc1ccccc1)c1ccc2c(=O)[nH]c3c(C(=O)NCC4CCCO4)sc(=S)n3c2c1", "note": "(stereo not shown)", "hERG current change (%, negative = inhibition) at 10uM": 4.56},
      {"smiles": "COc1ccc(OC)c(S(=O)(=O)N2CCC(C(=O)NC3CCCC3)CC2)c1", "hERG current change (%, negative = inhibition) at 10uM": 8.63},
      {"smiles": "Brc1ccc(-c2nnc(-c3ccc4c(c3)OCO4)o2)o1", "hERG current change (%, negative = inhibition) at 10uM": 9.18},
      {"smiles": "Cc1c(C(=O)NCCSCc2ccccc2)cccc1[N+](=O)[O-]", "hERG current change (%, negative = inhibition) at 10uM": 8.73},
      {"smiles": "COCCn1c(SCC(=O)Nc2ccc3c(c2)OCCO3)nc2c(c1=O)SC(C)C2", "note": "(stereo not shown)", "hERG current change (%, negative = inhibition) at 10uM": -15.2},
      {"smiles": "Cc1nc2ccccn2c(=O)c1CCN1CCC(C(=O)c2ccc(F)cc2)CC1", "hERG current change (%, negative = inhibition) at 10uM": -73.3},
      {"smiles": "CC(C)C[C@H](NC(=O)NCc1ccc(Cl)cc1)C(=O)O", "hERG current change (%, negative = inhibition) at 10uM": 2.18},
      {"smiles": "O=C(NC(=O)c1ccc(Cl)cc1)OC1CCCCC1", "hERG current change (%, negative = inhibition) at 10uM": -10.1},
      {"smiles": "O=C(Nc1ccc([N+](=O)[O-])cc1)C1CC12CCC2", "note": "(stereo not shown)", "hERG current change (%, negative = inhibition) at 10uM": -6.99},
      {"smiles": "COc1ccc(C(=O)N(C)C2CCCCC2)cc1S(=O)(=O)N1CCOCC1", "hERG current change (%, negative = inhibition) at 10uM": -3.28},
      {"smiles": "O=C(CC1CCCC1)NCCS(=O)(=O)N1CCN(c2ccccc2F)CC1", "hERG current change (%, negative = inhibition) at 10uM": -3.83},
      {"smiles": "CCN(CC)c1ccc(/C=N/NC(=O)C(O)(c2ccccc2)c2ccccc2)o1", "hERG current change (%, negative = inhibition) at 10uM": -8.38},
      {"smiles": "CCOc1cc(CN2CCc3c([nH]c4ccccc34)C2)ccc1OC", "hERG current change (%, negative = inhibition) at 10uM": -19},
      {"smiles": "CCN(CC)c1ccc(/C=C(\\C#N)C(N)=S)cc1", "hERG current change (%, negative = inhibition) at 10uM": 6.62},
      {"smiles": "CCCCSc1nnc(CSc2nc3nc(C)cc(C)n3n2)o1", "hERG current change (%, negative = inhibition) at 10uM": -31.9},
      {"smiles": "COc1ccc(-c2cc(C(F)(F)F)n3ncc(C(=O)Nc4c(C)n(C)n(-c5ccccc5)c4=O)c3n2)cc1", "hERG current change (%, negative = inhibition) at 10uM": 10.7},
      {"smiles": "O=C(Nc1ccc(Nc2ccccc2)cc1)c1c(F)c(F)c(F)c(F)c1F", "hERG current change (%, negative = inhibition) at 10uM": 22.9},
      {"smiles": "Cc1cc(C2=CC(C)(c3cc(C)oc3C)Nc3nc(C(F)(F)F)nn32)c(C)o1", "note": "(stereo not shown)", "hERG current change (%, negative = inhibition) at 10uM": 11.6}
    ]}
  ]
}
